Results taken from the supplement of paper PMC8728848.
This is one part of the list.

How the values were obtained:
Assay in all cases: glycan array binding signal (z-score within array); higher = stronger binding
Conditions in all cases: glycan notation: IUPAC condensed, linker removed
[1] = target: Gal(b1-4)GlcNAc(b1-3)Gal(b1-4)GlcNAc(b1-2)[Gal(b1-4)GlcNAc(b1-3)Gal(b1-4)GlcNAc(b1-6)]Man(a1-6)[Gal(b1-4)GlcNAc(b1-3)Gal(b1-4)GlcNAc(b1-2)Man(a1-3)]Man(b1-4)GlcNAc(b1-4)GlcNAc
Outline: (§1)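 Glycan array data came from 3228 arrays in the Consortium for Functional Glycomics database, and only arrays with an available protein sequence were kept. Glycan names were put into IUPAC-condensed notation, and columns mapping to the same glycan were averaged. The binding signal is a within-array Z-score, averaged across arrays of one protein sequence run at different concentrations or buffers and across linkers. A negative Z-score can be read as non-binding.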

[2] = target: Gal(b1-4)GlcNAc(b1-3)Gal(b1-4)GlcNAc(b1-2)[Gal(b1-4)GlcNAc(b1-3)Gal(b1-4)GlcNAc(b1-6)]Man(a1-6)[Gal(b1-4)GlcNAc(b1-3)Gal(b1-4)GlcNAc(b1-2)Man(a1-3)]Man(b1-4)GlcNAc(b1-4)[Fuc(a1-6)]GlcNAc
Outline: as §1

[3] = target: Gal(b1-4)GlcNAc(b1-3)Gal(b1-4)GlcNAc(b1-3)Gal(b1-4)GlcNAc
Outline: as §1

[4] = target: Gal(b1-4)GlcNAc(b1-3)Gal(b1-4)GlcNAc(b1-3)Gal(b1-4)GlcNAc(b1-2)Man(a1-3)[Gal(b1-4)GlcNAc(b1-3)Gal(b1-4)GlcNAc(b1-3)Gal(b1-4)GlcNAc(b1-2)Man(a1-6)]Man(b1-4)GlcNAc(b1-4)GlcNAc
Outline: as §1

[5] = target: Gal(b1-4)GlcNAc(b1-3)Gal(b1-4)GlcNAc(b1-3)Gal(b1-4)GlcNAc(b1-2)Man(a1-3)[Gal(b1-4)GlcNAc(b1-3)Gal(b1-4)GlcNAc(b1-3)Gal(b1-4)GlcNAc(b1-2)Man(a1-6)]Man(b1-4)GlcNAc(b1-4)[Fuc(a1-6)]GlcNAc
Outline: as §1

[6] = target: Gal(b1-4)GlcNAc(b1-3)Gal(b1-4)GlcNAc(b1-3)Gal(b1-4)GlcNAc(b1-2)[Gal(b1-4)GlcNAc(b1-3)Gal(b1-4)GlcNAc(b1-3)Gal(b1-4)GlcNAc(b1-6)]Man(a1-6)[Gal(b1-4)GlcNAc(b1-3)Gal(b1-4)GlcNAc(b1-3)Gal(b1-4)GlcNAc(b1-2)Man(a1-3)]Man(b1-4)GlcNAc(b1-4)[Fuc(a1-6)]GlcNAc
Outline: as §1

[7] = target: Gal(b1-4)GlcNAc(b1-3)Gal(b1-4)GlcNAc(b1-3)Gal(b1-4)GlcNAc(b1-3)Gal(b1-4)GlcNAc(b1-2)Man(a1-3)[Gal(b1-4)GlcNAc(b1-3)Gal(b1-4)GlcNAc(b1-3)Gal(b1-4)GlcNAc(b1-3)Gal(b1-4)GlcNAc(b1-2)Man(a1-6)]Man(b1-4)GlcNAc(b1-4)GlcNAc
Outline: as §1

[8] = target: Gal(b1-4)GlcNAc(b1-3)Gal(b1-4)GlcNAc(b1-3)Gal(b1-4)GlcNAc(b1-3)Gal(b1-4)GlcNAc(b1-2)Man(a1-3)[Gal(b1-4)GlcNAc(b1-3)Gal(b1-4)GlcNAc(b1-3)Gal(b1-4)GlcNAc(b1-3)Gal(b1-4)GlcNAc(b1-2)Man(a1-6)]Man(b1-4)GlcNAc(b1-4)[Fuc(a1-6)]GlcNAc
Outline: as §1

[9] = target: Gal(b1-4)GlcNAc(b1-3)Gal(b1-4)GlcNAc(b1-3)Gal(b1-4)GlcNAc(b1-3)Gal(b1-4)GlcNAc(b1-2)[Gal(b1-4)GlcNAc(b1-3)Gal(b1-4)GlcNAc(b1-3)Gal(b1-4)GlcNAc(b1-3)Gal(b1-4)GlcNAc(b1-6)]Man(a1-6)[Gal(b1-4)GlcNAc(b1-3)Gal(b1-4)GlcNAc(b1-3)Gal(b1-4)GlcNAc(b1-3)Gal(b1-4)GlcNAc(b1-2)Man(a1-3)]Man(b1-4)GlcNAc(b1-4)[Fuc(a1-6)]GlcNAc
Outline: as §1

[10] = target: Gal(b1-4)GlcNAc(b1-3)Gal(b1-4)GlcNAc(b1-3)Gal(b1-4)GlcNAc(b1-3)Gal(b1-4)GlcNAc(b1-3)Gal(b1-4)GlcNAc(b1-2)Man(a1-3)[Gal(b1-4)GlcNAc(b1-3)Gal(b1-4)GlcNAc(b1-3)Gal(b1-4)GlcNAc(b1-3)Gal(b1-4)GlcNAc(b1-3)Gal(b1-4)GlcNAc(b1-2)Man(a1-6)]Man(b1-4)GlcNAc(b1-4)GlcNAc
Outline: as §1

[11] = target: Gal(b1-4)GlcNAc(b1-3)Gal(b1-4)GlcNAc(b1-3)Gal(b1-4)GlcNAc(b1-3)Gal(b1-4)GlcNAc(b1-3)Gal(b1-4)GlcNAc(b1-2)Man(a1-3)[Gal(b1-4)GlcNAc(b1-3)Gal(b1-4)GlcNAc(b1-3)Gal(b1-4)GlcNAc(b1-3)Gal(b1-4)GlcNAc(b1-3)Gal(b1-4)GlcNAc(b1-2)Man(a1-6)]Man(b1-4)GlcNAc(b1-4)[Fuc(a1-6)]GlcNAc
Outline: as §1

[12] = target: Gal(b1-4)GlcNAc(b1-3)Gal(b1-4)GlcNAc(b1-3)Gal(b1-4)GlcNAc(b1-3)Gal(b1-4)GlcNAc(b1-3)Gal(b1-4)GlcNAc(b1-2)[Gal(b1-4)GlcNAc(b1-3)Gal(b1-4)GlcNAc(b1-3)Gal(b1-4)GlcNAc(b1-3)Gal(b1-4)GlcNAc(b1-3)Gal(b1-4)GlcNAc(b1-6)]Man(a1-6)[Gal(b1-4)GlcNAc(b1-3)Gal(b1-4)GlcNAc(b1-3)Gal(b1-4)GlcNAc(b1-3)Gal(b1-4)GlcNAc(b1-3)Gal(b1-4)GlcNAc(b1-2)Man(a1-3)]Man(b1-4)GlcNAc(b1-4)[Fuc(a1-6)]GlcNAc
Outline: as §1

[13] = target: Gal(b1-4)GlcNAc(b1-3)Gal(b1-4)GlcNAc(b1-3)Gal(b1-4)GlcNAc(b1-3)Gal(b1-4)GlcNAc(b1-3)Gal(b1-4)GlcNAc(b1-3)Gal(b1-4)GlcNAc(b1-2)Man(a1-3)[Gal(b1-4)GlcNAc(b1-3)Gal(b1-4)GlcNAc(b1-3)Gal(b1-4)GlcNAc(b1-3)Gal(b1-4)GlcNAc(b1-3)Gal(b1-4)GlcNAc(b1-3)Gal(b1-4)GlcNAc(b1-2)Man(a1-6)]Man(b1-4)GlcNAc(b1-4)GlcNAc
Outline: as §1

[14] = target: Gal(b1-4)GlcNAc(b1-3)Gal(b1-4)GlcNAc(b1-3)GalNAc
Outline: as §1

[15] = target: Gal(b1-4)GlcNAc(b1-3)Gal(b1-4)GlcNAc(b1-3)[Gal(b1-4)GlcNAc(b1-3)Gal(b1-4)GlcNAc(b1-6)]GalNAc
Outline: as §1

[16] = target: Gal(b1-4)GlcNAc(b1-3)Gal(b1-4)GlcNAc(b1-6)[Gal(b1-3)]GalNAc
Outline: as §1

[17] = target: Gal(b1-4)GlcNAc(b1-3)Gal(b1-4)[Fuc(a1-3)]GlcNAc(b1-3)Gal(b1-4)[Fuc(a1-3)]GlcNAc
Outline: as §1

[18] = target: Gal(b1-4)GlcNAc(b1-3)GalNAc
Outline: as §1

[19] = target: Gal(b1-4)GlcNAc(b1-3)[Fuc(a1-3)GlcNAc(b1-6)]Gal(b1-4)Glc
Outline: as §1

[20] = target: Gal(b1-4)GlcNAc(b1-3)[Gal(b1-4)GlcNAc(b1-6)]Gal(b1-4)GlcNAc
Outline: as §1

[21] = target: Gal(b1-4)GlcNAc(b1-3)[GlcNAc(b1-6)]Gal(b1-4)GlcNAc
Outline: as §1

[22] = target: Gal(b1-4)GlcNAc(b1-6)Gal(b1-4)GlcNAc
Outline: as §1

[23] = target: Gal(b1-4)GlcNAc(b1-6)GalNAc
Outline: as §1

[24] = target: Gal(b1-4)GlcNAc(b1-6)[Gal(b1-3)]GalNAc
Outline: as §1

[25] = target: Gal(b1-4)GlcNAc(b1-6)[Gal(b1-4)GlcNAc(b1-3)]GalNAc
Outline: as §1

Gal(b1-4)GlcNAc6P = target: Gal(b1-4)GlcNAc6P
Outline: as §1

Gal(b1-6)Gal = target: Gal(b1-6)Gal
Outline: as §1

Gal3S(b1-3)GalNAc = target: Gal3S(b1-3)GalNAc
Outline: as §1

Gal3S(b1-3)GlcNAc = target: Gal3S(b1-3)GlcNAc
Outline: as §1

[26] = target: Gal3S(b1-3)[Fuc(a1-4)]GlcNAc
Outline: as §1

Gal3S(b1-4)Glc = target: Gal3S(b1-4)Glc
Outline: as §1

Gal3S(b1-4)Glc6S = target: Gal3S(b1-4)Glc6S
Outline: as §1

Gal3S(b1-4)GlcNAc = target: Gal3S(b1-4)GlcNAc
Outline: as §1

[27] = target: Gal3S(b1-4)[Fuc(a1-3)]Glc6S
Outline: as §1

[28] = target: Gal3S(b1-4)[Fuc(a1-3)]GlcNAc
Outline: as §1

[29] = target: Gal3S(b1-4)[Fuc(a1-3)]GlcNAc6S
Outline: as §1

Gal3S4S(b1-4)GlcNAc = target: Gal3S4S(b1-4)GlcNAc
Outline: as §1

Gal3S6S(b1-4)GlcNAc = target: Gal3S6S(b1-4)GlcNAc
Outline: as §1

Gal3S6S(b1-4)GlcNAc6S = target: Gal3S6S(b1-4)GlcNAc6S
Outline: as §1

Gal4S(b1-4)GlcNAc = target: Gal4S(b1-4)GlcNAc
Outline: as §1

Gal4S6S(b1-4)GlcNAc = target: Gal4S6S(b1-4)GlcNAc
Outline: as §1

Gal6P(b1-4)GlcNAc = target: Gal6P(b1-4)GlcNAc
Outline: as §1

Gal6S(b1-3)GlcNAc = target: Gal6S(b1-3)GlcNAc
Outline: as §1

Gal6S(b1-3)GlcNAc6S = target: Gal6S(b1-3)GlcNAc6S
Outline: as §1

Gal6S(b1-4)Glc = target: Gal6S(b1-4)Glc
Outline: as §1

B1: NKR-PIC (Mus musculus) (protein)
chain: GTGQKPSREKCCVFIQENLNKTTDCSVNLECPQDWLLHRDKCFHVSQVSNTWEEGQADCGRKGATLLLIQDQEELRFLLDSIKEKYNSFWIGLRFTLPDMNWKWINGTTFNSDVLKITGVTENGSCASILGDKVTPESCASDNRWICQKELNHETPSNDSGT
- glycan array binding signal (z-score) [1]: -0.257
- glycan array binding signal (z-score) [2]: -0.286
- glycan array binding signal (z-score) [3]: -0.241
- glycan array binding signal (z-score) [4]: -0.247
- glycan array binding signal (z-score) [5]: -0.258
- glycan array binding signal (z-score) [6]: -0.318
- glycan array binding signal (z-score) [7]: -0.323
- glycan array binding signal (z-score) [8]: -0.255
- glycan array binding signal (z-score) [9]: -0.277
- glycan array binding signal (z-score) [10]: -0.32
- glycan array binding signal (z-score) [11]: -0.224
- glycan array binding signal (z-score) [12]: -0.18
- glycan array binding signal (z-score) [13]: 0.128
- glycan array binding signal (z-score) [14]: -0.274
- glycan array binding signal (z-score) [15]: -0.348
- glycan array binding signal (z-score) [16]: -0.201
- glycan array binding signal (z-score) [17]: -0.39
- glycan array binding signal (z-score) [18]: -0.29
- glycan array binding signal (z-score) [19]: -0.342
- glycan array binding signal (z-score) [20]: -0.33
- glycan array binding signal (z-score) [21]: 3.35
- glycan array binding signal (z-score) [22]: -0.109
- glycan array binding signal (z-score) [23]: 2.41
- glycan array binding signal (z-score) [24]: -0.318
- glycan array binding signal (z-score) [25]: -0.232
- glycan array binding signal (z-score) (Gal(b1-4)GlcNAc6P): -0.272
- glycan array binding signal (z-score) (Gal(b1-6)Gal): -0.371
- glycan array binding signal (z-score) (Gal3S(b1-3)GalNAc): -0.25
- glycan array binding signal (z-score) (Gal3S(b1-3)GlcNAc): -0.292
- glycan array binding signal (z-score) [26]: -0.318
- glycan array binding signal (z-score) (Gal3S(b1-4)Glc): -0.166
- glycan array binding signal (z-score) (Gal3S(b1-4)Glc6S): -0.179
- glycan array binding signal (z-score) (Gal3S(b1-4)GlcNAc): -0.23
- glycan array binding signal (z-score) [27]: -0.02
- glycan array binding signal (z-score) [28]: -0.292
- glycan array binding signal (z-score) [29]: -0.312
- glycan array binding signal (z-score) (Gal3S4S(b1-4)GlcNAc): -0.178
- glycan array binding signal (z-score) (Gal3S6S(b1-4)GlcNAc): -0.159
- glycan array binding signal (z-score) (Gal3S6S(b1-4)GlcNAc6S): -0.22
- glycan array binding signal (z-score) (Gal4S(b1-4)GlcNAc): -0.086
- glycan array binding signal (z-score) (Gal4S6S(b1-4)GlcNAc): -0.254
- glycan array binding signal (z-score) (Gal6P(b1-4)GlcNAc): -0.386
- glycan array binding signal (z-score) (Gal6S(b1-3)GlcNAc): -0.331
- glycan array binding signal (z-score) (Gal6S(b1-3)GlcNAc6S): -0.349
- glycan array binding signal (z-score) (Gal6S(b1-4)Glc): -0.305
